Laboratory results published in the supplement of paper PMC4967469.
The IC50 comes from the fitted curve, where viability falls to half of the control; where the fit passes the top or lowest dose, that dose stands as a limit. For AUC the same curve is integrated over the 256-fold range of doses and scaled to a fraction; it is 1 without any effect and falls as sensitivity rises. The top dose, if marked as inferred, was calculated from the reported fits. An entry number marks a drug with two screens in the source, which often give different values.

What follows are cell lines tested with NC(=O)[C@@H](CCC(F)(F)F)N(Cc1ccc(-c2ncon2)cc1F)S(=O)(=O)c1ccc(Cl)cc1 [BMS-708163] (assay: Viability of human cancer cell lines after 72 h of drug (GDSC screen)). Settings: screen: GDSC drug entry 205; top dose inferred.
Description: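 Human cancer cell lines in 384-well plates, medium with 10% serum, drug for 72 h over a 256-fold dose range (nine 2-fold or five 4-fold steps up to the top dose). Adherent lines were fixed and stained with the nucleic acid dye Syto60, suspension lines read with resazurin; signal relative to control wells, capped at 0 and 100%. One two-parameter sigmoid per drug and line, fitted in a mixed model over all curves with the slope shared within a line.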

Row | Cell Line | AUC | IC50 [µM]
1 | 451Lu (melanoma, adherent, top dose 10.24 µM) | 0.989 | > 10.2
2 | SW48 (large intestine, adherent, top dose 2.56 µM) | 0.987 | > 2.56
3 | ES7 (Ewing sarcoma, adherent, top dose 10.24 µM) | 0.984 | > 10.2
4 | YH-13 (glioma, adherent, top dose 10.24 µM) | 0.978 | > 10.2
5 | KOPN-8 (B-cell leukaemia, suspension, top dose 10.24 µM) | 0.99 | > 10.2
6 | KYAE-1 (oesophagus, suspension, top dose 10.24 µM) | 0.976 | > 10.2
7 | H2818 (mesothelioma, adherent, top dose 10.24 µM) | 0.987 | > 10.2
8 | SKG-IIIa (cervix, adherent, top dose 10.24 µM) | 0.982 | > 10.2
9 | NCI-H650 (lung adenocarcinoma, adherent, top dose 10.24 µM) | 0.986 | > 10.2
10 | LAMA-84 (chronic myeloid leukaemia, suspension, top dose 10.24 µM) | 0.987 | > 10.2
11 | RCC-ER (kidney, adherent, top dose 10.24 µM) | 0.984 | > 10.2
12 | NB-4 (acute myeloid leukaemia, suspension, top dose 10.24 µM) | 0.985 | > 10.2
13 | VMRC-MELG (melanoma, adherent, top dose 10.24 µM) | 0.988 | > 10.2
14 | NCI-H522 (lung adenocarcinoma, adherent, top dose 10.24 µM) | 0.984 | > 10.2
15 | Hep 3B2_1-7 (liver, adherent, top dose 10.24 µM) | 0.986 | > 10.2
16 | ES-2 (ovary, adherent, top dose 10.24 µM) | 0.991 | > 10.2
17 | TYK-nu (ovary, adherent, top dose 10.24 µM) | 0.983 | > 10.2
18 | BT-483 (breast, adherent, top dose 2.56 µM) | 0.967 | > 2.56
19 | PCI-15A (head and neck, adherent, top dose 10.24 µM) | 0.987 | > 10.2
20 | NCI-H2029 (small cell lung carcinoma, adherent, top dose 10.24 µM) | 0.992 | > 10.2
21 | HCC1187 (breast, suspension, top dose 10.24 µM) | 0.986 | > 10.2
22 | NCI-H2444 (non-small cell lung carcinoma, adherent, top dose 10.24 µM) | 0.988 | > 10.2
23 | PANC-10-05 (pancreas, adherent, top dose 10.24 µM) | 0.98 | > 10.2
24 | NCI-H23 (lung adenocarcinoma, adherent, top dose 10.24 µM) | 0.987 | > 10.2

Row | Cell Line | AUC | IC50 [µM]
25 | NCI-H2122 (lung adenocarcinoma, adherent, top dose 2.56 µM) | 0.989 | > 2.56
26 | NCI-H64 (small cell lung carcinoma, suspension, top dose 10.24 µM) | 0.996 | > 10.2
27 | OAW-42 (ovary, adherent, top dose 10.24 µM) | 0.986 | > 10.2
28 | ECC10 (stomach, suspension, top dose 10.24 µM) | 0.959 | > 10.2
29 | VCaP (prostate, adherent, top dose 10.24 µM) | 0.965 | > 10.2
30 | NCI-H1693 (lung adenocarcinoma, adherent, top dose 2.56 µM) | 0.943 | > 2.56
31 | JHH-4 (liver, adherent, top dose 10.24 µM) | 0.945 | > 10.2
32 | Ca9-22 (head and neck, adherent, top dose 10.24 µM) | 0.988 | > 10.2
33 | HSC-39 (stomach, suspension, top dose 10.24 µM) | 0.99 | > 10.2
34 | NCI-H1838 (lung adenocarcinoma, adherent, top dose 10.24 µM) | 0.987 | > 10.2
35 | COR-L105 (lung adenocarcinoma, adherent, top dose 10.24 µM) | 0.969 | > 10.2
36 | NCI-H716 (large intestine, suspension, top dose 2.56 µM) | 0.972 | > 2.56
37 | RVH-421 (melanoma, adherent, top dose 10.24 µM) | 0.966 | > 10.2
38 | DMS-114 (small cell lung carcinoma, adherent, top dose 10.24 µM) | 0.982 | > 10.2
39 | TE-8 (oesophagus, adherent, top dose 10.24 µM) | 0.97 | > 10.2
40 | COR-L88 (small cell lung carcinoma, adherent, top dose 10.24 µM) | 0.986 | > 10.2
41 | EMC-BAC-1 (lung adenocarcinoma, adherent, top dose 10.24 µM) | 0.972 | > 10.2
42 | CTB-1 (B-cell lymphoma, suspension, top dose 10.24 µM) | 0.966 | > 10.2
43 | DoTc2-4510 (cervix, adherent, top dose 10.24 µM) | 0.989 | > 10.2
44 | Daoy (medulloblastoma, adherent, top dose 10.24 µM) | 0.975 | > 10.2
45 | SU-DHL-8 (B-cell lymphoma, suspension, top dose 10.24 µM) | 0.979 | > 10.2
46 | MOG-G-UVW (glioma, adherent, top dose 10.24 µM) | 0.987 | > 10.2
47 | ATN-1 (T-cell lymphoblastic leukaemia, suspension, top dose 2.56 µM) | 0.982 | > 2.56
48 | GAK (melanoma, adherent, top dose 10.24 µM) | 0.99 | > 10.2

Row | Cell Line | AUC | IC50 [µM]
49 | SU8686 (pancreas, adherent, top dose 10.24 µM) | 0.985 | > 10.2
50 | NCI-H510A (small cell lung carcinoma, semi-adherent, top dose 10.24 µM) | 0.983 | > 10.2
51 | CAL-78 (chondrosarcoma, adherent, top dose 10.24 µM) | 0.986 | > 10.2
52 | H2369 (mesothelioma, adherent, top dose 10.24 µM) | 0.987 | > 10.2
53 | SNU-175 (large intestine, suspension, top dose 10.24 µM) | 0.984 | > 10.2
54 | COLO-684 (endometrium, suspension, top dose 10.24 µM) | 0.98 | > 10.2
55 | JAR (urogenital system, adherent, top dose 10.24 µM) | 0.987 | > 10.2
56 | ESS-1 (endometrium, adherent, top dose 10.24 µM) | 0.987 | > 10.2
57 | VM-CUB-1 (bladder, adherent, top dose 10.24 µM) | 0.988 | > 10.2
58 | MKN28 (stomach, adherent, top dose 10.24 µM) | 0.987 | > 10.2
59 | SK-MES-1 (lung squamous cell carcinoma, adherent, top dose 10.24 µM) | 0.982 | > 10.2
60 | SBC-1 (small cell lung carcinoma, suspension, top dose 10.24 µM) | 0.989 | > 10.2
61 | H2731 (mesothelioma, adherent, top dose 10.24 µM) | 0.914 | > 10.2
62 | Hs939-T (melanoma, adherent, top dose 10.24 µM) | 0.986 | > 10.2
63 | NCI-H1435 (lung adenocarcinoma, semi-adherent, top dose 10.24 µM) | 0.993 | > 10.2
64 | BT-474 (breast, adherent, top dose 10.24 µM) | 0.986 | > 10.2
65 | NB5 (neuroblastoma, adherent, top dose 10.24 µM) | 0.987 | > 10.2
66 | QGP-1 (pancreas, adherent, top dose 10.24 µM) | 0.977 | > 10.2
67 | COLO-668 (small cell lung carcinoma, adherent, top dose 10.24 µM) | 0.982 | > 10.2
68 | JSC-1 (B-cell lymphoma, suspension, top dose 10.24 µM) | 0.968 | > 10.2
69 | CHP-134 (neuroblastoma, suspension, top dose 10.24 µM) | 0.977 | > 10.2
70 | NCI-H2170 (lung squamous cell carcinoma, adherent, top dose 10.24 µM) | 0.985 | > 10.2
71 | U-2-OS (osteosarcoma, adherent, top dose 10.24 µM) | 0.984 | > 10.2
72 | VMRC-RCW (kidney, adherent, top dose 10.24 µM) | 0.989 | > 10.2

Same assay, conditions: top dose 5 µM; screen: GDSC drug entry 1072; top dose inferred

Row | Cell Line | AUC | IC50 [µM]
73 | NCI-H146 (small cell lung carcinoma, suspension) | 0.995 | > 5
74 | KARPAS-1106P (B-cell lymphoma, suspension) | 0.98 | > 5
75 | MOLT-13 (T-cell lymphoblastic leukaemia, suspension) | 0.905 | > 5
76 | RCC-FG2 (kidney, adherent) | 0.976 | > 5
77 | OV-90 (ovary, adherent) | 0.976 | > 5
78 | H2810 (mesothelioma, adherent) | 0.973 | > 5
